Data as given in PubChem BioAssay AID1476 (National Center for Advancing Translational Sciences (NCATS), 2009).
About 4,500 (2.2%) of roughly 200,000 compounds were called active. This list was built around the results that the source calls inconclusive (neither active nor inactive); the mix of calls is not that of the screen. The call rests on the fitted dose curve; in most records, active means well fitted inhibition curve with a large enough effect; inconclusive means small, poorly fitted or top-dose-only effect, or effect the other way; inactive means flat fitted curve, though single readings scatter. Potencies beside an inconclusive call are fits to weak or partial responses and may not hold up.

biological target: Cruzipain (Trypanosoma cruzi) (UniProt P25779); test: qHTS Assay for Promiscuous and Specific Inhibitors of Cruzain (without detergent); details: purified cruzain, Z-FR-AMC fluorescence, no detergent; further: nearly all actives have a fitted effect of over 40% in size;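 on max response, negative = inhibition: plate controls were enzyme without inhibitor for no effect and buffer without enzyme for full effect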
In short: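 Purified cruzain at 1.5 nM, pre-incubated 15 min with compound at room temperature in 100 mM sodium acetate pH 5.5, 5 mM DTT, 0.00005% Triton X-100. Reaction started with 2 uM Z-FR-AMC; AMC fluorescence increase over 60 s gives rate.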
Potency means the concentration at half of the fitted maximal effect; tags describe the fitted curve by direction and shape.

Chain of UniProt P25779 (P25779 whole entry, looked up): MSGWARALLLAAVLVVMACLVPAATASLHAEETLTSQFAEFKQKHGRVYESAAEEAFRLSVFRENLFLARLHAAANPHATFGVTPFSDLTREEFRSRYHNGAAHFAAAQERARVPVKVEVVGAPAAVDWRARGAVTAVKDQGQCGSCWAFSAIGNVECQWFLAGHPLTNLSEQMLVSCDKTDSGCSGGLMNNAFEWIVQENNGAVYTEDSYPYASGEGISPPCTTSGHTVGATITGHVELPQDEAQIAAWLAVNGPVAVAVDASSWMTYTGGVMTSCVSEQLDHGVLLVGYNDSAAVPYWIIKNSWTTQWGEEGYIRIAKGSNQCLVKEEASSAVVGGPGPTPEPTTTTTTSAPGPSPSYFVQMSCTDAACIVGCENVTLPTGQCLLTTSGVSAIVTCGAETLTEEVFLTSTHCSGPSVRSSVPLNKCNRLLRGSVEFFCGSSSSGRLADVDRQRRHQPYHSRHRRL

| SMILES | max response, negative = inhibition | Potency |
| --- | --- | --- |
| O=C(Cn1c(=O)oc2ccccc21)NCc1cccc(Cl)c1 | inactive: -5.43% | – |
| O=C(c1ccccc1)c1ccc(OCC(O)CN2CCN(S(=O)(=O)N3CCCCC3)CC2)cc1 (stereo not given) | – | inconclusive: 15.8 µM [activator, single point] |
| COc1ccc(OCCn2c(C)c(/C=N/n3cnnc3)c3ccccc32)cc1 | – | inconclusive: 39.8 µM [activator, single point] |
| O=c1c(O)c(-c2ccc(O)c(O)c2)oc2c(OC3OC(CO)C(O)C(O)C3O)c(O)cc(O)c12 (stereo not given) | inactive: -13.9% | – |
| CCN1CCN(C(c2ccc(OC)cc2)c2c(O)cc(C)n(CCOC)c2=O)CC1 (stereo not given) | – | inconclusive: 31.6 µM [activator, single point] |
| CCOc1ccc(/C=C(\C#N)c2nc(-c3cc4ccccc4oc3=O)cs2)c(OCC)c1 | inactive: 3.9% | – |
| CSc1ccc(CCNc2ncnc3onc(C)c23)cc1 | inactive: 12.3% | – |
| Cc1cc(C)c2oc(C(=O)N(Cc3ccc(F)cc3)C3CCS(=O)(=O)C3)cc(=O)c2c1 (stereo not given) | inactive: 12.5% | – |
| COc1cccc(C(=O)NC(=S)Nc2ccc3c4c(cccc24)CC3)c1 | – | inconclusive: 39.8 µM [inhibitor, single point] |
| CCCCOc1c(Cl)cc(C(=O)N(Cc2ccc(C)o2)C2CCS(=O)(=O)C2)cc1Cl (stereo not given) | – | inconclusive: 31.6 µM [activator, single point] |
| CCOc1ccc(N(CC(=O)NCc2ccco2)S(=O)(=O)c2ccc(OC)c(OC)c2)cc1 | – | inconclusive: 39.8 µM [activator, single point] |
| CCOc1ccccc1N1CCN(C(=O)CCCc2nc3ccccc3s2)CC1 | – | inconclusive: 31.6 µM [activator, single point] |
| CN(C(=O)c1cc(-c2ccccc2O)on1)c1ccccc1 | inactive: -11.9% | – |
| O=C(Nc1ccc(F)cc1)N(Cc1cccs1)Cc1cc2cc3c(cc2[nH]c1=O)OCO3 | – | inconclusive: 31.6 µM [inhibitor, single point] |
| COc1ccc(NC(=O)C2=C(C)Nc3nc(SCc4ccccc4C)nn3C2c2ccc(Br)cc2)cc1 (stereo not given) | inactive: -10% | – |
| CN(C(=O)COC(=O)c1ccccc1Nc1ccccc1)C1CCS(=O)(=O)C1 (stereo not given) | – | inconclusive: 39.8 µM [activator, single point] |
| COc1cc(NC(=O)c2ccc(Cl)cc2)c(OC)cc1NC(=O)CN1CCOCC1 | – | inconclusive: 39.8 µM [activator, single point] |
| COc1ccc(-c2cc(C(F)(F)F)c(C#N)c(SCC(=O)Nc3ccc(C)cc3)n2)cc1 | – | inconclusive: 39.8 µM [inhibitor, single point] |
| COc1ccc(-c2cn3cccnc3n2)cc1F | – | active: 20 µM |
| O=C(CCc1ccccc1)NC(NC(=S)Nc1ccc(Cl)cc1)C(Cl)(Cl)Cl (stereo not given) | – | active: 25.1 µM |
| COc1ccc(-c2nc(C(N)=O)c3[nH]c(=O)n(-c4ccccc4OC)c3n2)c(OC)c1 | inactive: -10.8% | – |
| O=C(NC1CC(=O)N(c2ccccc2)C1)C1CCCCC1 (stereo not given) | – | inconclusive: 7.94 µM [activator, single point] |

| SMILES | max response, negative = inhibition | Potency |
| --- | --- | --- |
| CCOCCCNC(=S)N1C2CCC1CC(NC(=O)NC13CC4CC(CC(C4)C1)C3)C2 (stereo not given) | – | inconclusive: 31.6 µM [activator, single point] |
| Cc1c(-c2nsc(NC(=O)c3ccc(Cl)cc3)n2)nnn1-c1ccc(C(C)C)cc1 | – | inconclusive: 31.6 µM [inhibitor, single point] |
| CC(=O)c1ccc(N2CCN(c3nc4c(S(=O)(=O)c5ccccc5)nnn4c4ccc(Cl)cc34)CC2)cc1 | inactive: 0.808% | – |
| O=C(c1ccco1)N1CCN(c2nc3ccccc3n3nnnc23)CC1 | inactive: -15.9% | – |
| CCN(Cc1ccccc1)Cc1cc(OC)cc(OC)c1 | inactive: 9.23% | – |
| COc1ccc(N2CCN(CCCNC(=O)C3COc4ccc(OC)cc4C3)CC2)cc1 (stereo not given) | inactive: -3.38% | – |
| O=C(C[n+]1cc(-c2ccccc2)n2c1CCC2)Nc1nc(-c2ccc(F)cc2)cs1 | – | inconclusive: 25.1 µM [inhibitor, single point] |
| Cc1ccc(-c2cc(N)n3nc(-c4ccc(C)cc4)cc3n2)cc1 | – | inconclusive: 31.6 µM [inhibitor, single point] |
| Cc1[nH]n(-c2ccccc2)c(=O)c1C1(C(F)(F)F)C(=O)N(c2ccc(F)cc2)C2=C1C(=O)CC(C)(C)C2 (stereo not given) | – | inconclusive: 31.6 µM [activator, single point] |
| Cc1cc2ccc(=O)oc2cc1OC[C@@H](O)C(C)(C)O | – | active: 39.8 µM |
| COc1ccc2c(c1)O[C@@H](c1cccc(C(F)(F)F)c1)[C@H](OC(=O)Nc1cc(OC)c(OC)c(OC)c1)C2=O | inactive: -4.84% | – |
| COc1cc(NS(=O)(=O)c2ccc(N=Cc3c(C)[nH]n(-c4ccccc4)c3=O)cc2)nc(OC)n1 | – | inconclusive: 31.6 µM [activator, single point] |
| COc1ccccc1OCC(=O)N(Cc1nc(-c2ccc(Cl)cc2)no1)C(C)C | – | inconclusive: 31.6 µM [activator, single point] |
| CCCCOC(=O)NS(=O)(=O)c1sc(CC(C)C)cc1-c1ccc(Cn2c(CC)nc3c(C)cc(C)nc32)cc1 | – | inconclusive: 7.94 µM [activator, single point] |
| Cc1ccc(NC(=O)c2c(Nc3ccccc3C)sc(C(=O)c3ccccc3)c2N)cc1 | – | active: 6.31 µM |
| C/C(CC(=O)Nc1ccc(Cl)c(C(F)(F)F)c1)=N\NC(=O)c1cc2ccccc2cc1O | – | inconclusive: 10 µM [inhibitor, partial curve, poor fit] |
| O=C(NCC(c1ccc2c(c1)OCO2)N1CCN(c2ccccc2)CC1)c1ccccc1F (stereo not given) | inactive: 0.046% | – |
| Cc1sc2nc(SCc3ccccc3)n(Cc3ccco3)c(=O)c2c1C | – | inconclusive: 31.6 µM [inhibitor, single point] |
| COc1ccc(CN(CCC(c2ccc3c(c2)OCO3)c2ccccc2OC)C(C)=O)cc1 (stereo not given) | – | inconclusive: 39.8 µM [activator, single point] |
| CCc1ccc(-n2c(SCC(=O)Nc3cccc(S(=O)(=O)NC4=NCCCCC4)c3)nc3ccccc3c2=O)cc1 | – | inconclusive: 39.8 µM [inhibitor, single point] |
| COc1ccccc1N1CCN(C(=O)c2c(-c3ccccc3)noc2C)CC1 | – | inconclusive: 31.6 µM [activator, single point] |
| CN1C(=O)c2ccccc2Sc2ccc(NC(=O)Nc3ccccc3F)cc21 | – | inconclusive: 39.8 µM [activator, single point] |

| SMILES | max response, negative = inhibition | Potency |
| --- | --- | --- |
| Cc1cccn2c(=O)c(/C=C(\C#N)c3nc4ccccc4n3C)c(Oc3ccc(Br)cc3)nc12 | inactive: -4.44% | – |
| CCOC(=O)Cn1nc(-c2ccccc2)nc1-c1ccccc1 | inactive: 3.8% | – |
| CCCCCCCc1cc2c(cn1)C(=O)C(C)(OC(C)=O)C(O)=C2Cl (stereo not given) | inactive: -6.97% | – |
| CCN(CC)c1ccc(/C=N/NC(=S)NCc2ccccc2)c(O)c1 | – | inconclusive: 39.8 µM [inhibitor, single point] |
| CC(C)(C)C1CCC2(CC1)Nc1cccc3cccc(c13)N2 | – | active: 25.1 µM |
| CCCn1c(SCC(=O)Nc2ccccc2N2CCOCC2)nc2c1c(=O)n(C)c(=O)n2C | – | inconclusive: 39.8 µM [activator, single point] |
| COc1ccc(CNC(=O)CCn2nc(C)c3c(C)n(-c4ccccc4)nc3c2=O)cc1OC | inactive: 1.62% | – |
| COCCNC(=O)[C@H]1C[C@@H]1[C@H](NP(=O)(c1ccccc1)c1ccccc1)c1ccccc1 | – | inconclusive: 39.8 µM [activator, single point] |
| Cc1cc(O)c(C(c2ccc(F)cc2)N2CCCCC2)c(=O)n1Cc1ccco1 (stereo not given) | – | inconclusive: 31.6 µM [inhibitor, single point] |
| CCc1ccc(-n2nc(C)c3c(C(=O)Nc4cccc(C(F)(F)F)c4)cc(C)nc32)cc1 | – | inconclusive: 31.6 µM [inhibitor, single point] |
| Cc1cc(Nc2cccc(C(F)(F)F)c2)nc2ccc(NC(=O)c3ccc(N(C)C)cc3)cc12 | – | inconclusive: 1 µM [inhibitor, single point] |
| COc1ccc(NC(=O)c2ccco2)cc1N | inactive: -2.27% | – |
| Cc1cccc(N/C(N)=N/c2nc(C(F)(F)F)cc(=O)[nH]2)c1C | – | inconclusive: 31.6 µM [inhibitor, single point] |
| CC(=O)N1[C@H](Cc2ccccc2)C=C[C@]1(C)C(=O)NCc1ccc(C)o1 | – | inconclusive: 39.8 µM [activator, single point] |
| Cc1cccc(/C=C/c2onc(C)c2S(=O)(=O)N2CCC(C(=O)N3CCC(C)CC3)CC2)c1 | – | inconclusive: 3.16 µM [activator, single point] |
| FC(F)(F)c1ccccc1-n1ccnc1 | – | inconclusive: 39.8 µM [activator, single point] |
| CCOc1cc(C2C(C(=O)OC)=C(C)NC3=C2C(=O)c2ccccc23)ccc1O (stereo not given) | – | inconclusive: 15.8 µM [activator, partial curve, poor fit] |
| COc1ccc(-n2nc3ccc(NC(=O)c4cc5ccccc5o4)cc3n2)cc1Cl | inactive: -1.43% | – |
| CCCCC/C=C\C/C=C\C/C=C\CCCCC(=O)NC(C)C(=O)O (stereo not given) | inactive: 4.55% | – |
| N#Cc1cc(Oc2ccc3ccccc3c2)c(-n2nnc3ccccc32)cc1C#N | – | inconclusive: 31.6 µM [inhibitor, single point] |
| Cc1ccc(N2C(S)=C(C#N)C(=O)NC2c2cccs2)cc1 (stereo not given) | inactive: -19.6% | – |
